# Experimental data taken from the supplement of paper PMC8728848.
# The list shows a part of the results.
# B1: PX14375F-bfa-539-21-539 (Bacteroides fragilis) (protein)
# chain: EDFLQKDPPSSPSQSVFWQKKSDFESALAGTYSVMYSGVFSQIMPCLDGLTDNAIVQHSEGTYGWAKTIAQGDLTPNQGGFVTDIYGNCYKGIARVHILMEQLDQYTGSDISADEKKFMLAQCKALRGYFYSWLYQCYKEVPVVTQSLDLNTMYQPKATRAEVLNRVMTDYDEAISELPDKLYSDSQTSGRFTVSAVKALKARILLFDAYDSNGKAISSKMEEVLTLLQSIKGYSLAARVRDNFISEKQLASPEIMFSVRFLRPNLTHSMDLYYGAWAVLDPTRNMVDAFECTDGKPWGESPLTVRPDESILYGNDDALKKAERAKMFMNRDRRLYESVNHSMMANFVDDGFKDEEVQVNESNNKGPTGFSALKYVQPTDVTPGYSTVSDADIVVLRYAHVLLMIAEAENEAHGATTTALNAINEVRTRSGQPAIEAGISQDDLRERIRNEWRIETCFEGLRYFQLKRWKLMDKRVNGVEDPAYPGYIKVYKPAFEFFPIPQSEIDKAGGVLKQDPAYE
# Experiments:
# Assay in all cases: glycan array binding signal (z-score within array); higher = stronger binding
# Settings in all cases: glycan notation: IUPAC condensed, linker removed
# [1] = molecular target: Neu5Ac(a2-3)Gal(b1-4)GlcNAc(b1-6)GalNAc
# Outline: (§1)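 Columns mapping to the same glycan were averaged after glycan names were converted to IUPAC-condensed notation. The data come from 3228 arrays in the Consortium for Functional Glycomics database, limited to those with an available protein sequence. Binding is reported as a within-array Z-score averaged across arrays of one protein sequence and across linkers.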
# [2] = molecular target: Neu5Ac(a2-3)Gal(b1-4)GlcNAc(b1-6)[Gal(b1-3)]GalNAc
# Outline: as §1
# [3] = molecular target: Neu5Ac(a2-3)Gal(b1-4)GlcNAc(b1-6)[Neu5Ac(a2-3)Gal(b1-3)]GalNAc
# Outline: as §1
# [4] = molecular target: Neu5Ac(a2-3)Gal(b1-4)GlcNAc6S
# Outline: as §1
# [5] = molecular target: Neu5Ac(a2-3)Gal(b1-4)[Fuc(a1-3)]GlcNAc
# Outline: as §1
# [6] = molecular target: Neu5Ac(a2-3)Gal(b1-4)[Fuc(a1-3)]GlcNAc(b1-2)Man
# Outline: as §1
# [7] = molecular target: Neu5Ac(a2-3)Gal(b1-4)[Fuc(a1-3)]GlcNAc(b1-3)Gal
# Outline: as §1
# [8] = molecular target: Neu5Ac(a2-3)Gal(b1-4)[Fuc(a1-3)]GlcNAc(b1-3)Gal(b1-4)GlcNAc
# Outline: as §1
# [9] = molecular target: Neu5Ac(a2-3)Gal(b1-4)[Fuc(a1-3)]GlcNAc(b1-3)Gal(b1-4)[Fuc(a1-3)]GlcNAc(b1-3)Gal(b1-4)[Fuc(a1-3)]GlcNAc
# Outline: as §1
# [10] = molecular target: Neu5Ac(a2-3)Gal(b1-4)[Fuc(a1-3)]GlcNAc(b1-3)GalNAc
# Outline: as §1
# [11] = molecular target: Neu5Ac(a2-3)Gal(b1-4)[Fuc(a1-3)]GlcNAc(b1-6)[Gal(b1-3)]GalNAc
# Outline: as §1
# [12] = molecular target: Neu5Ac(a2-3)Gal(b1-4)[Fuc(a1-3)]GlcNAc(b1-6)[Neu5Ac(a2-3)Gal(b1-3)]GalNAc
# Outline: as §1
# [13] = molecular target: Neu5Ac(a2-3)Gal(b1-4)[Fuc(a1-3)]GlcNAc6S
# Outline: as §1
# [14] = molecular target: Neu5Ac(a2-3)Gal6S(b1-4)GlcNAc
# Outline: as §1
# [15] = molecular target: Neu5Ac(a2-3)Gal6S(b1-4)[Fuc(a1-3)]GlcNAc
# Outline: as §1
# Neu5Ac(a2-3)GalNAc = molecular target: Neu5Ac(a2-3)GalNAc
# Outline: as §1
# [16] = molecular target: Neu5Ac(a2-3)GalNAc(b1-4)GlcNAc
# Outline: as §1
# [17] = molecular target: Neu5Ac(a2-3)[GalNAc(b1-4)]Gal(b1-4)Glc
# Outline: as §1
# [18] = molecular target: Neu5Ac(a2-3)[GalNAc(b1-4)]Gal(b1-4)GlcNAc
# Outline: as §1
# [19] = molecular target: Neu5Ac(a2-3)[GalNAc(b1-4)]Gal(b1-4)GlcNAc(b1-3)GalNAc
# Outline: as §1
# [20] = molecular target: Neu5Ac(a2-3)[Neu5Ac(a2-6)]GalNAc
# Outline: as §1
# Neu5Ac(a2-6)Gal = molecular target: Neu5Ac(a2-6)Gal
# Outline: as §1
# [21] = molecular target: Neu5Ac(a2-6)Gal(b1-3)GlcNAc(b1-3)[Gal(b1-4)GlcNAc(b1-6)]Gal(b1-4)Glc
# Outline: as §1
# Neu5Ac(a2-6)Gal(b1-4)Glc = molecular target: Neu5Ac(a2-6)Gal(b1-4)Glc
# Outline: as §1
# [22] = molecular target: Neu5Ac(a2-6)Gal(b1-4)GlcNAc
# Outline: as §1
# [23] = molecular target: Neu5Ac(a2-6)Gal(b1-4)GlcNAc(b1-2)Man
# Outline: as §1
# [24] = molecular target: Neu5Ac(a2-6)Gal(b1-4)GlcNAc(b1-2)Man(a1-3)Man(b1-4)GlcNAc(b1-4)GlcNAc
# Outline: as §1
# [25] = molecular target: Neu5Ac(a2-6)Gal(b1-4)GlcNAc(b1-2)Man(a1-3)[Gal(b1-4)GlcNAc(b1-2)Man(a1-6)]Man(b1-4)GlcNAc(b1-4)GlcNAc
# Outline: as §1
# [26] = molecular target: Neu5Ac(a2-6)Gal(b1-4)GlcNAc(b1-2)Man(a1-3)[GlcNAc(b1-2)Man(a1-6)]Man(b1-4)GlcNAc(b1-4)GlcNAc
# Outline: as §1
# [27] = molecular target: Neu5Ac(a2-6)Gal(b1-4)GlcNAc(b1-2)Man(a1-3)[GlcNAc(b1-4)][Neu5Ac(a2-6)Gal(b1-4)GlcNAc(b1-2)Man(a1-6)]Man(b1-4)GlcNAc(b1-4)GlcNAc
# Outline: as §1
# [28] = molecular target: Neu5Ac(a2-6)Gal(b1-4)GlcNAc(b1-2)Man(a1-3)[Man(a1-6)]Man(b1-4)GlcNAc(b1-4)GlcNAc
# Outline: as §1
binder,measurement,setting,value
B1,glycan array binding signal (z-score),[1],0.053
same,glycan array binding signal (z-score),[2],0.26
same,glycan array binding signal (z-score),[3],0.39
same,glycan array binding signal (z-score),[4],-0.04
same,glycan array binding signal (z-score),[5],-0.368
same,glycan array binding signal (z-score),[6],0.144
same,glycan array binding signal (z-score),[7],-0.611
same,glycan array binding signal (z-score),[8],0.49
same,glycan array binding signal (z-score),[9],0.514
same,glycan array binding signal (z-score),[10],0.097
same,glycan array binding signal (z-score),[11],0.278
same,glycan array binding signal (z-score),[12],0.81
same,glycan array binding signal (z-score),[13],-0.935
same,glycan array binding signal (z-score),[14],-0.023
same,glycan array binding signal (z-score),[15],0.178
same,glycan array binding signal (z-score),Neu5Ac(a2-3)GalNAc,-0.323
same,glycan array binding signal (z-score),[16],-0.258
same,glycan array binding signal (z-score),[17],-0.803
same,glycan array binding signal (z-score),[18],-0.459
same,glycan array binding signal (z-score),[19],0.894
same,glycan array binding signal (z-score),[20],-0.146
same,glycan array binding signal (z-score),Neu5Ac(a2-6)Gal,0.207
same,glycan array binding signal (z-score),[21],-0.214
same,glycan array binding signal (z-score),Neu5Ac(a2-6)Gal(b1-4)Glc,-0.038
same,glycan array binding signal (z-score),[22],0.121
same,glycan array binding signal (z-score),[23],0.113
same,glycan array binding signal (z-score),[24],0.11
same,glycan array binding signal (z-score),[25],-0.808
same,glycan array binding signal (z-score),[26],0.45
same,glycan array binding signal (z-score),[27],0.614
same,glycan array binding signal (z-score),[28],-0.309
